From PubChem BioAssay AID1346378 (National Center for Advancing Translational Sciences (NCATS), 2018)
The campaign covered roughly 420,000 compounds. About 540 (0.13%) were called active. Inconclusive means that the source gave no clear call. Such entries were picked first, then a sample of the others. Cut-off read from the data, not from the text of the source: active = activity change below about -50%; inconclusive = mostly about -30% to -49%; inactive = weaker than that.

Target: Phosphatidylinositol 4-kinase type 2-alpha (Homo sapiens) (UniProt Q9BTU6)
Test: qHTS for small molecular inhibitors of PI4K2A;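 note: -100% = wells without enzyme as full effect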
Details: purified PI4K2A, ADP-Glo luminescence, 1 h; at 76.9 µM, active compounds read low
Summary of the method: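 Compounds are screened against recombinant PI4K2A using PI as substrate and ATP, the latter dispensed at 300 microM. Reactions run one hour at ambient temperature before ADP-Glo detection; full inhibition defined by wells lacking enzyme.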

Chain of UniProt Q9BTU6 (Q9BTU6 whole entry, looked up): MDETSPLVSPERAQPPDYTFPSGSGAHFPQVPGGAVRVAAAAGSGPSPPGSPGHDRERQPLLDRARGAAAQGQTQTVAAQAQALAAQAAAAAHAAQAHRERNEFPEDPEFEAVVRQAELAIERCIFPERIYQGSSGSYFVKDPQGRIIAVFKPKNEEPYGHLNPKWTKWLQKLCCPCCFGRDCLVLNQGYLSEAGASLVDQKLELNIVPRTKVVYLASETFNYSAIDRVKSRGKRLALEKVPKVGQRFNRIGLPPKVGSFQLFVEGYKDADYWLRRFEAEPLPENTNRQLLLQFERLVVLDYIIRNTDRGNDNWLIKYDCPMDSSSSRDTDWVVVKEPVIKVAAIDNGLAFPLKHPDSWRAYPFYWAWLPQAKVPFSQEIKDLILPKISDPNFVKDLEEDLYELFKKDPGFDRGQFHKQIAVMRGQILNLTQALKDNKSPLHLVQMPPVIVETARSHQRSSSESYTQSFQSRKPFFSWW

SMILES	activity change, negative = inhibition
CC(C)(C)c1ccc(-c2csc(NNC3=NCCCCC3)n2)cc1	inconclusive: -31.8%
c1ccc(-c2ccc(-c3nc(-c4ccccn4)no3)cc2)cc1	active: -93.6%
COC(=O)CCCC1=CC2=CC(=O)C(C)(OC(=O)c3cccs3)C(=O)C2=CN1CCc1c[nH]c2ccccc12 (stereo unspecified)	inconclusive: -33.9%
C=CC#CC1(O)CC(C)N(C)CC1C (stereo unspecified)	inactive: 13.6%
Cc1cc(-c2csc(NC(=O)c3ccc(=O)n(C)n3)n2)c(C)n1CC1CCCO1 (stereo unspecified)	inconclusive: -46.1%
Fc1ccc(-c2nnc(NC3=NCCCCC3)o2)cc1	inconclusive: -41.3%
O=c1[nH]c(Nc2ccc(F)cc2)cc2ccccc12	active: -51.3%
Nc1cnn(C2OC(CO)C(O)C2O)c(=O)n1 (stereo unspecified)	inconclusive: -31.3%
CC(C)(C)/C(O)=C/c1nc2cc(Cl)ccc2oc1=O	inactive: 12.3%
CC(C)c1nc2sc3c(NCc4ccco4)ncnc3c2c2c1COC(C)(C)C2	inconclusive: -40.1%
Cc1ccc(Nc2cc(=O)n(C3CCCCC3)c(=O)[nH]2)cc1C	inconclusive: -33%
Nc1ccc2nc[nH]c2c1	inconclusive: -32.8%
N/C(=N\OCc1ccc([N+](=O)[O-])cc1)c1ccccn1	inconclusive: -31.8%
COc1cccc(C(=O)/C=C/Nc2cccc(O)c2)c1	inconclusive: -43.6%
COc1ccc(CC(=O)OCn2nnc3ccccc3c2=O)cc1	active: -56.7%
CC1=NN(c2ccc(S(=O)(=O)O)cc2C)C(=O)C1	active: -67.7%
c1cc2c(cc1-c1csc(NNC3=NCCCCC3)n1)OCCO2	inconclusive: -36.9%
O=C(Nc1nc2c(Cl)cccc2s1)c1ccc([N+](=O)[O-])o1	inactive: -2.01%
CN1CCN(C2=C(Cl)C(=O)c3ccccc3C2=O)CC1	active: -55%
CN1CCN(C(c2ccc(Br)cc2)c2cc(Cl)c3cccnc3c2O)CC1 (stereo unspecified)	inactive: 9.64%
O=C(NN1C(=O)/C(=C/C=C/c2ccccc2)SC1=S)c1ccncc1	inactive: -6.59%
O=C(Cc1ccccc1Cl)NC1(O)C(=O)c2ccccc2C1=O	inconclusive: -34.3%
OC(c1cccc(CN2CCCCC2)c1)c1ncc(-c2ccccc2Cl)[nH]1 (stereo unspecified)	inactive: -0.404%

SMILES	activity change, negative = inhibition
N#CCC(=O)Nc1ccc(C(=O)OCC(=O)c2ccc3c(c2)NC(=O)CO3)cc1	inconclusive: -30.5%
Cn1c(=O)c2c(-c3ccccc3)n(-c3ccc(N)cc3)cc2n(C)c1=O	inconclusive: -43.4%
COc1cc(C=NO)nc(-c2ccccn2)c1	inconclusive: -31.8%
COc1ccc(/C=N\NC(=O)C2COc3ccccc3O2)cc1O (stereo unspecified)	inactive: -3.56%
CC1(C)O[C@@H]2[C@H](O1)[C@@H](CO)O[C@H]2n1c(N2CCCCC2)nc2c(N)ncnc21	active: -54.5%
COc1cc(CCNC2=CC(=O)c3ncccc3C2=O)ccc1O	inconclusive: -32.8%
Cc1ccc(NC(=O)CCN2CCN(C/C=C/c3ccccc3)CC2)cc1C	inactive: 2.38%
COc1ccc(CNc2nc3ccccc3n2C)c(OC)c1	inconclusive: -36.1%
COc1cc(NCCCCCCN)c2ncccc2c1OC	inconclusive: -40.3%
Nc1c(C(=O)NCC2CCCO2)sc2nc3c(c(-c4ccco4)c12)CC/C3=C\c1ccco1 (stereo unspecified)	active: -75.9%
CCOc1cc(CNc2ccc(O)cc2)cc(Cl)c1OCc1ccccc1	inconclusive: -47.9%
OCCCc1nc2n(n1)C(c1ccccc1)C=C(c1ccc(F)cc1)N2 (stereo unspecified)	active: -66.4%
COc1ccccc1Nc1ccc2c(O)cc(S(=O)(=O)O)cc2c1	active: -59.1%
O=C(Nc1ccc(C(=O)N2CCCC2)cc1)c1ccccc1F	active: -70.3%
O=C(Cn1c(=O)c2sccc2n(Cc2cccc([N+](=O)[O-])c2)c1=O)NCCc1ccccc1	inactive: 1.98%
COc1ccc(/C=C2\C(=O)NC(=O)c3ccccc32)cc1OC	inconclusive: -41.9%
CC(C)Cc1cc(C(=O)Nc2cccc(O)c2)no1	inconclusive: -33.4%
N/C(=N\OC(=O)c1ccccc1)c1ccccn1	active: -67.4%
Nc1ccc2c(c1)C(=O)C(=O)c1ccccc1-2	inconclusive: -44.6%
CCOC(=O)/C=C(\C)Sc1cc(O)c2ccccc2c1O	inconclusive: -37.3%
COC(=O)[C@]12C[C@H](CC(=O)NCCCCc3ccccc3)C(=O)N(Cc3ccc4c(c3)OCO4)C1=C[C@H](C(C)C)O[C@@H]2C1CC1	inactive: -3.34%
O=C(O)CC(CCc1ccccc1)OC1OC(CO)C(O)C(O)C1O (stereo unspecified)	inconclusive: -41.5%
COc1ccc(CNC(=O)Nc2cn(CC(C)C)c(=O)c3ccccc23)cc1	inconclusive: -42.9%
